Laboratory results from paper PMC12136788.
The other results are listed elsewhere or left out.

B1: ENSG00000107863:be:win_4701|CDS|ENSG00000107863|bound_else_gene|NA|bound_elsewhere_windowed (ssRNA)
RNA: GGGAGUUCUACAGUCCGACGAUCCAGUCCAGAAACGAAACAUAGCGAGUUUUUGGCCAACGUCAGCACCAUCACCUCAGAUUAUUCCACCACAUCGUCUGCUACAUACUUGACUAGCCUGGACUCCAGUCGACUGAGCCCUGACAACAGAGGAUUGAGCAUCA
B2: ENSG00000070961:be:win_2651|CDS|ENSG00000070961|bound_else_gene|NA|bound_elsewhere_windowed (ssRNA)
RNA: GGGAGUUCUACAGUCCGACGAUCCUGUGCAGAUGCUGUGGGUAAACCUCAUAAUGGAUACACUCGCUUCCCUGGCUCUGGCAACGGAACCACCCACUGAGUCUCUCUUGCUUCGGAAACCUUAUGGUAGAAAUAAGCCUCUCACAACAGAGGAUUGAGCAUCA
B3: chrX:12823584:12823685:+|3pUTR|ENSG00000101911|unk|total|mutant (ssRNA)
RNA: GGGAGUUCUACAGUCCGACGAUCUGACUUAAAGGUAAUCAUUUCAGCUAAGAUUAAAUUUAAAGCCUAAGAAUGUACCGAGCCCGUUUUAAAAUAAUGAUCUCAGAUUUUUAAAAAGGAUACCGGAACCUGCAUUGUCAUUCUCAACAGAGGAUUGAGCAUCA
B4: chr21:43982464:43982545:+|3pUTR|ENSG00000160216|msi1_unk|total|mutant (ssRNA)
RNA: GGGAGUUCUACAGUCCGACGAUCCCCUGACGGUGGUAUCCAGUUAACUCAAAACCAACACACAGAGUGCAGGAAAAGACAAUCCGAAACUAUUUUUCUUAUUAACUGGUGACUAAUAUUAACAAAACUUGAGCCAAGAGUAAACAACAGAGGAUUGAGCAUCA
B5: chr2:148946928:148947042:+|CDS|ENSG00000168280|unk|total|mutant (ssRNA)
RNA: GGGAGUUCUACAGUCCGACGAUCGAAUGAACACAGCUCCCGAAGUCACAGUAUCUUCCUGAUAAAUAUUAAACAAGAGAAUGCCGAGACUGAAAAAAAACUCAGUGGGAAACUUUAUUUGGUUGAUUUGGCUGGGAGCGAAAACAACAGAGGAUUGAGCAUCA
B6: chr8:11323570:11323671:+|3pUTR|ENSG00000104643|unk|FALSE|unique (ssRNA)
RNA: GGGAGUUCUACAGUCCGACGAUCGAGCAUACAUAUACAAUGUGUUUCAAAUGCUGCUUGUAAAAUUAAACCAUCAUCUAGAAUAGAGUUAAUUUAUUAUAAUCAAGCUACAAAUAGGUUUUCUUAAACCAGAGAUGCACUGCCCAACAGAGGAUUGAGCAUCA
B7: ENSG00000136888:stop:overlap|stop_codon|ENSG00000136888|stop_codon|NA|stop_codon (ssRNA)
RNA: GGGAGUUCUACAGUCCGACGAUCUCUUGGCUUUUGUCUGUGACAUUCGGCCAGAAAUCCAUGAAAACUACCGCAUAAAUGGAUAGAAGAGAGAAGCACCUGUGCUGUGGAGUGGCAUUUUAGAUGCCCUCACGAAUAUGAAGCCAACAGAGGAUUGAGCAUCA
B8: chr18:67510860:67510961:-|3pUTR|ENSG00000171451|msi1|FALSE|bound_elsewhere (ssRNA)
RNA: GGGAGUUCUACAGUCCGACGAUCACUAAUAAUACUUACCAACCCACUUUGUGGAUAUGAAUCAGAAGAGUUUGUUUAUUCUUUAGUGUGUGUGUGUGUGUGCACGCGUGUAUGUGUUCAGUGUUGUUUGCACAGAGAGAUUGUCAACAGAGGAUUGAGCAUCA
B9: ENSG00000136451:be:win_501|CDS|ENSG00000136451|bound_else_gene|NA|bound_elsewhere_windowed (ssRNA)
RNA: GGGAGUUCUACAGUCCGACGAUCUAAGCCUGUCAAGAAGAACCAUGCUUGUGAGAUGUGUGGGAAGGCCUUCCGAGAUGUGUACCAUCUCAAUCGACACAAGCUCUCCCAUUCAGAUGAGAAACCCUUUGAGUGUCCUAUUUGCAACAGAGGAUUGAGCAUCA
B10: ENSG00000117139:stop:overlap|stop_codon|ENSG00000117139|stop_codon|NA|stop_codon (ssRNA)
RNA: GGGAGUUCUACAGUCCGACGAUCAUGAAUACUGUUUGUUUUUUGUUUUUCCUUCCAGAUUAGACUUUGGGGGAUUUCUUAUAUAGAAUAAAGGGCUUGAUUAUAUGUAGCCUCUAUCCUGGAGAAAGGUUAUGUAAUUUGGACCAACAGAGGAUUGAGCAUCA
B11: chr1:152032676:152032810:-|CDS|ENSG00000163191|unk|FALSE|unique (ssRNA)
RNA: GGGAGUUCUACAGUCCGACGAUCGGACCCUGGUGUCCUUGACCGCAUGAUGAAGAAACUGGACACCAACAGUGAUGGUCAGCUAGAUUUCUCAGAAUUUCUUAAUCUGAUUGGUGGCCUAGCUAUGGCUUGCCAUGACUCCUUCAACAGAGGAUUGAGCAUCA
B12: chr17:63354981:63355093:+|CDS|ENSG00000170921|unk|total|mutant (ssRNA)
RNA: GGGAGUUCUACAGUCCGACGAUCCAGUCAAGGGUCCUAUCUAUAUCUGAAACUUACAUUUGACCUCACCGAGAAAGGCUAUCCCGUGUUAAAGAGCUCCCGCUACAAAGCCGUUCCUGUUUCGCUCUCAGAGGUUUAUUUACUCAACAGAGGAUUGAGCAUCA
B13: chr8:70573615:70573716:-|3pUTR|ENSG00000067167|msi1|FALSE|unique (ssRNA)
RNA: GGGAGUUCUACAGUCCGACGAUCCAGUGUUCACAUCUUGUUCCCCAUUUCUCACUUGUGUCACCAGCUGUUUGUGCCAUUUUUAGUGUAAAAGUUGCAGACCUAUUAGAUCUGCAGUUUAAGUUGCCAUGCUGCUAGGAAAUUCAACAGAGGAUUGAGCAUCA
B14: chr22:38864602:38864703:-|3pUTR|ENSG00000183741|msi1|total|mutant (ssRNA)
RNA: GGGAGUUCUACAGUCCGACGAUCGCUGUGCUGCCAUGGGCCCCUCCCUCAGAAGCACGUUGGCAGGAGGCCGAUCAGAACCCCCGCGCCUUUGGUCCUAAGAAUGGGAGGCUGCCUUCCUUCCCAAUCUCCCUGCCAGGGCCCCAACAGAGGAUUGAGCAUCA

These binders were tested against MSI1 full-length (mouse, UniProt Q61474 1-362) (assay: nsRBNS (natural sequence RNA bind-n-seq); RBNS binding buffer (assumed for nsRBNS): 25 mM Tris pH 7.5, 150 mM KCl, 3 mM MgCl2, 0.01% Triton X-100, 500 ug/ml BSA, 20 U/ml SUPERase-In, 4 C; UNK is unkempt and MSI1 is Musashi-1; names of the RNAs are library labels; protein concentration not given here; high values mean tight binding).
UniProt Q61474, sequence (Q61474 whole entry): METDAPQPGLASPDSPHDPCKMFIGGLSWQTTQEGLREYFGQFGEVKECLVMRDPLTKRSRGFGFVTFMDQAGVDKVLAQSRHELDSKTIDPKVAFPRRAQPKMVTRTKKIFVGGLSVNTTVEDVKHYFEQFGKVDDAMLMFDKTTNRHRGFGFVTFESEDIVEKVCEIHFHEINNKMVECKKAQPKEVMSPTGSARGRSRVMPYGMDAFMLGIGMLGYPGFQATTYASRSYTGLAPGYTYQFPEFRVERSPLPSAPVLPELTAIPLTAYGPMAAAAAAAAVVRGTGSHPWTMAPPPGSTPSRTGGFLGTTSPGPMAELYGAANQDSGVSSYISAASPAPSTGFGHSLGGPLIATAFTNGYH
Binder B1 has a binding signal of 0.579 enrichment R. With B2 the binding signal was 0.326 enrichment R. B3 was tested, and the binding signal was 0.29 enrichment R. B4 showed a binding signal of 0.485 enrichment R. With B5 the binding signal was 0.453 enrichment R. In the case of B6, the binding signal is reported as 4.16 enrichment R. With B7 the binding signal was 0.385 enrichment R. B8 was tested, and the binding signal was 0.452 enrichment R. Work on B9 yielded a binding signal of 0.372 enrichment R. For B10, the binding signal was 0.597 enrichment R. B11 showed a binding signal of 0.264 enrichment R. B12 was tested, and the binding signal was 0.604 enrichment R. B13 gave a binding signal of 0.937 enrichment R. B14 was tested, and the binding signal was 0.697 enrichment R.
